{"source": "paper PMC6212790", "note": "This is one part of the list. At the low end of the ranking the order means little.", "data": [{"target": "T1, GST-Rok (full length) (UniProt O34857)", "T1 sequence": "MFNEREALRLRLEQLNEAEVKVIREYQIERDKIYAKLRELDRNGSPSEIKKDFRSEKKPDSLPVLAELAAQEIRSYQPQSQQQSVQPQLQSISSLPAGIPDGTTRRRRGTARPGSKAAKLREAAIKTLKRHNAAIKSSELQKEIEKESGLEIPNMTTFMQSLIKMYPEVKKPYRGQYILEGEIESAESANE", "experiment": "protein binding microarray;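 note: rank score from −0.5 (least bound) to 0.5 (best bound)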", "conditions": "Rok is a gene silencer of Bacillus subtilis; high values mean tight binding; most listed sequences are background and not binding sites; double strand, one strand shown", "units": {"binding signal": "E-score"}, "values": [{"sequence": "GTCGGCGA", "binding signal": -0.166}, {"sequence": "CGTATGAG", "binding signal": 0.0203}, {"sequence": "TAACACCA", "binding signal": 0.0451}, {"sequence": "CCTTAGCA", "binding signal": -0.152}, {"sequence": "CACTGACG", "binding signal": -0.00725}, {"sequence": "ATCCGCCA", "binding signal": -0.347}, {"sequence": "ACAGACCT", "binding signal": -0.218}, {"sequence": "CACCCGAG", "binding signal": -0.167}, {"sequence": "CACGTGCA", "binding signal": -0.109}, {"sequence": "AAGTACGA", "binding signal": 0.192}, {"sequence": "CACGGAGA", "binding signal": 0.0382}, {"sequence": "GCTAAACA", "binding signal": -0.0536}, {"sequence": "CGGGGGGA", "binding signal": -0.39}, {"sequence": "CGTTCAAG", "binding signal": -0.124}, {"sequence": "ATAGCCCG", "binding signal": -0.106}, {"sequence": "AAAAACAT", "binding signal": 0.2}, {"sequence": "TCGACTCA", "binding signal": 0.128}, {"sequence": "GATATTGC", "binding signal": 0.0457}, {"sequence": "ACAGTGGA", "binding signal": -0.0353}, {"sequence": "CTTGTACA", "binding signal": 0.187}, {"sequence": "CGAAAAGA", "binding signal": 0.00822}, {"sequence": "ATAGCTGA", "binding signal": 0.159}, {"sequence": "CTAAATAA", "binding signal": 0.251}, {"sequence": "GGGAGACA", "binding signal": -0.322}, {"sequence": "CAGCACTA", "binding signal": -0.0863}, {"sequence": "ATATCGAC", "binding signal": 0.191}, {"sequence": "AATGTCAA", "binding signal": -0.0246}, {"sequence": "AGATTACA", "binding signal": 0.108}, {"sequence": "TAAATTGA", "binding signal": 0.23}, {"sequence": "AGTATGAG", "binding signal": -0.0193}, {"sequence": "GAGTACCA", "binding signal": -0.0678}, {"sequence": "ACTTCTAG", "binding signal": 0.217}, {"sequence": "CATGTGTA", "binding signal": 0.204}, {"sequence": "CGCGGTTC", "binding signal": -0.163}, {"sequence": "ACGTTCCC", "binding signal": -0.312}, {"sequence": "CACACGTC", "binding signal": -0.205}, {"sequence": "CCCCTGCA", "binding signal": -0.381}, {"sequence": "CTGTCTGA", "binding signal": -0.191}, {"sequence": "ACCAAGTG", "binding signal": -0.0317}, {"sequence": "TTACATAA", "binding signal": 0.183}, {"sequence": "GGGGCTGA", "binding signal": -0.459}, {"sequence": "CAGATATA", "binding signal": 0.165}, {"sequence": "ATATTTTC", "binding signal": 0.326}, {"sequence": "AAAACTGC", "binding signal": -0.0878}, {"sequence": "GGAAAGAC", "binding signal": -0.12}, {"sequence": "GGGCGCCA", "binding signal": -0.355}, {"sequence": "AACCTTCG", "binding signal": -0.0262}, {"sequence": "CAGCGTTA", "binding signal": 0.0195}, {"sequence": "AATGAAAA", "binding signal": -0.0795}, {"sequence": "GGTTGGAC", "binding signal": -0.145}, {"sequence": "ACCGAATG", "binding signal": 0.0417}, {"sequence": "GGGTCAAA", "binding signal": -0.145}, {"sequence": "TGCGTAAA", "binding signal": 0.0234}, {"sequence": "AATTGCAG", "binding signal": -0.158}, {"sequence": "ATCCATGC", "binding signal": -0.0231}, {"sequence": "ACTTAACA", "binding signal": 0.076}, {"sequence": "ATAGCTAC", "binding signal": 0.333}, {"sequence": "ACTAACCT", "binding signal": 0.108}, {"sequence": "ATTATGAA", "binding signal": 0.272}, {"sequence": "TCCGTTAA", "binding signal": -0.0884}, {"sequence": "GTTAATGA", "binding signal": 0.132}, {"sequence": "GCACCGGA", "binding signal": -0.144}, {"sequence": "ACTTTCGA", "binding signal": -0.0862}, {"sequence": "CACCGACC", "binding signal": -0.211}, {"sequence": "AATCCTAG", "binding signal": -0.0761}, {"sequence": "AGTCACCG", "binding signal": 0.0567}, {"sequence": "GGAGTGGA", "binding signal": -0.248}, {"sequence": "AAAGCGCT", "binding signal": -0.129}, {"sequence": "CTAATGAC", "binding signal": -0.05}, {"sequence": "AAATTTTC", "binding signal": 0.18}, {"sequence": "CGACAATC", "binding signal": 0.0527}, {"sequence": "AAAGCGAT", "binding signal": -0.0865}, {"sequence": "TGCGTCCA", "binding signal": 0.0832}, {"sequence": "CAGCAGGG", "binding signal": -0.193}, {"sequence": "CGGCATTC", "binding signal": -0.226}, {"sequence": "TAACCTGA", "binding signal": 0.0191}, {"sequence": "ACTATCCG", "binding signal": 0.163}, {"sequence": "ATCTGTGC", "binding signal": 0.0954}, {"sequence": "CAGCCAAA", "binding signal": -0.0376}, {"sequence": "AGATTAAT", "binding signal": 0.346}, {"sequence": "TCAATCAA", "binding signal": -0.0718}, {"sequence": "CTGGTATA", "binding signal": 0.303}, {"sequence": "ACGGCCGC", "binding signal": -0.192}, {"sequence": "ATTTTGCA", "binding signal": 0.0497}, {"sequence": "ATCCCCCA", "binding signal": -0.453}, {"sequence": "CAAGTCAA", "binding signal": 0.171}, {"sequence": "ATCAAAGA", "binding signal": 0.172}, {"sequence": "GCACCGGC", "binding signal": -0.325}, {"sequence": "CCCGTCCC", "binding signal": -0.284}, {"sequence": "ACCGTTTA", "binding signal": 0.166}, {"sequence": "ACGTGGTG", "binding signal": -0.258}, {"sequence": "GGTGGCCA", "binding signal": -0.244}, {"sequence": "ATGCCCGA", "binding signal": -0.287}, {"sequence": "CAGGGCCC", "binding signal": -0.376}]}]}
